Measured values as given in patent US5475132A, “Antifungal agents based on amides containing a phenyl group” (Rhone-Poulenc Agrochimie, priority 1988, dated 1995).

These compounds were tested on Phytophthora infestans (assay: whole plant or invertebrate). Conditions: in Solanum lycopersicum, 168 h, read-out: inhibition of the development of the mould.
Protocol: Treatment of tomato mildew (Phytophthora infestans)
Tomato (Lycopersicum esculentum) plants, of the Marmande variety, are cultivated in pots. When these plants are a month old (5 to 6 leaf stage, height 12 to 15 cm), they are treated by spraying with a suspension or aqueous solution of the material to be tested, which is at the desired concentration and contains a surfactant which is a condensate of sorbitan monooleate with 20 molecules of ethylene oxide. This surfactant is at a concentration equal to half the concentration of the active material. Each tomato plant receives about 5 ml of the solution or dispersion. The treatment is carried out on two plants for each concentration of active material to be tested. Plants used as controls are treated with a solution which contains no active material, but contains the same surfactant at an identical concentration.
After drying for 24 hours, each plant is infected by spraying with an aqueous suspension of spores of Phytophthora infestans, which is responsible for tomato mildew, at a rate of about 5 ml/plant (that is about 50,000 spores per plant).
After this infection, the tomato plants are incubated for one day at about 15° C. in a saturated atmosphere, then for five days at about 17° C. and 70% to 90% relative humidity.
Seven days after infection, the results obtained in the case of plants treated with the active material to be tested are compared with those obtained in the case of plants used as controls.
COc1ccc(-c2c(C(=O)N3CCOCC3)sc3ccc([N+](=O)[O-])cc23)cc1OC [Compound 104, 2-(4-Morpholinocarbonyl)-5-nitro-3-(3,4-dimethoxyphenyl)benzothiophene] was tested, and the inhibition at 1000 ppm was no less than 80%. COc1ccc(C2=C(C(=O)N3CCOCC3)C(O)c3ccccc32)cc1OC (stereo not shown) [Compound 110, 1-(3,4-Dimethoxyphenyl)-2-morpholinocarbonyl-3-hydroxyindene] showed an inhibition at 1000 ppm of no less than 80%. Compound COc1ccc2c(c1)CC(C(=O)N1CCOCC1)=C2c1ccc(OC)c(OC)c1 [Compound 111, 2-Morpholinocarbonyl-3-(3,,4-dimethoxyphenyl)-6-mehoxyindene] has an inhibition at 1000 ppm of no less than 80%. In the case of COc1ccc(C2=C(C(=O)N3CCOCC3)Cc3cc(OC)c(OC)cc32)cc1OC [Compound 112, 2-Morpholinocarbonyl-3-(3,4-dimethoxyphenyl)-5,6-methoxyindene], the inhibition at 1000 ppm is reported as no less than 80%. For COc1ccc(-c2c(C(=O)N3CCOCC3)sc3ccc(Cl)cc23)cc1OC [Compound 113], the inhibition at 1000 ppm was no less than 80%. Compound COc1ccc(-c2c(C(=O)N3CCOCC3)sc3ccc(F)cc23)cc1OC [Compound 117] has an inhibition at 1000 ppm of no less than 80%. Compound COc1ccc(-c2c(C(=O)N3CCOCC3)sc3ccccc23)cc1OC [Compound 118] has an inhibition at 1000 ppm of no less than 80%. COc1ccc(-c2c(C(=O)N3CCOCC3)sc3cccc(F)c23)cc1OC [Compound 129] gave an inhibition at 1000 ppm of no less than 80%. Compound COc1ccc(-c2c(C(=O)N3CCOCC3)sc3ccc(C(F)(F)F)cc23)cc1OC [Compound 133] has an inhibition at 1000 ppm of no less than 80%. For COc1ccc(C2=C(C(=O)N3CCOCC3)C(OC(C)=O)c3ccccc32)cc1OC (stereo not shown) [Compound 148], the inhibition at 1000 ppm was no less than 80%. With COc1ccc(-c2nc(-c3ccc(Cl)cc3)ccc2C(=O)N(C)CC2CCCO2)cc1OC (stereo not shown) [Compound 381] the inhibition at 1000 ppm was no less than 80%.

Each compound was assayed on Plasmopara viticola (assay: Example B2: treatment of vine mildew (Plasmopara viticola) on vine cuttings). Conditions: 192 h, 330 ppm (0.33 g/l), vine cuttings, 8 days after infection, read-out: inhibition of the development of the mould.
Protocol: Treatment of vine mildew (Plasmopara viticola)
Vine (Vitis vinifera) cuttings of the Chardonnay variety are cultivated in pots. When these plants are 2 months old (8 to 10 leaf stage, height 20 to 30 cm) they are treated in the same manner as in Example B1.
After drying for 24 hours, each plant is infected by spraying with an aqueous suspension of spores of Plasmopara viticola which is responsible for vine mildew, at the rate of about 5 ml/plant (that is about 100,000 spores per plant).
After this infection, the vine plants are incubated for two days at about 18° C. in a saturated atmosphere, then for five days at about 20°-22° C. and 90-100% relative humidity.
Eight days after infection, the results obtained in the case of the plants treated with the active material to be tested are compared with those obtained in the case of plants used as controls.
COc1ccc(-c2c(C(=O)N3CCOCC3)sc3ccc([N+](=O)[O-])cc23)cc1OC [Compound 104, 2-(4-Morpholinocarbonyl)-5-nitro-3-(3,4-dimethoxyphenyl)benzothiophene] gave an inhibition at 330 ppm of no less than 80%. COc1ccc(C2=C(C(=O)N3CCOCC3)C(O)c3ccccc32)cc1OC (stereo not shown) [Compound 110, 1-(3,4-Dimethoxyphenyl)-2-morpholinocarbonyl-3-hydroxyindene] was tested, and the inhibition at 330 ppm was no less than 80%. COc1ccc2c(c1)CC(C(=O)N1CCOCC1)=C2c1ccc(OC)c(OC)c1 [Compound 111, 2-Morpholinocarbonyl-3-(3,,4-dimethoxyphenyl)-6-mehoxyindene] showed an inhibition at 330 ppm of no less than 80%. COc1ccc(C2=C(C(=O)N3CCOCC3)Cc3cc(OC)c(OC)cc32)cc1OC [Compound 112, 2-Morpholinocarbonyl-3-(3,4-dimethoxyphenyl)-5,6-methoxyindene] gave an inhibition at 330 ppm of no less than 80%. COc1ccc(-c2c(C(=O)N3CCOCC3)sc3ccc(Cl)cc23)cc1OC [Compound 113] gave an inhibition at 330 ppm of no less than 80%. COc1ccc(-c2c(C(=O)N3CCOCC3)sc3ccc(F)cc23)cc1OC [Compound 117] gave an inhibition at 330 ppm of no less than 80%. Work on COc1ccc(-c2c(C(=O)N3CCOCC3)sc3ccccc23)cc1OC [Compound 118] yielded an inhibition at 330 ppm of no less than 80%. COc1ccc(-c2c(C(=O)N3CCOCC3)sc3cccc(F)c23)cc1OC [Compound 129] gave an inhibition at 330 ppm of no less than 80%. In the case of COc1ccc(-c2c(C(=O)N3CCOCC3)sc3ccc(C(F)(F)F)cc23)cc1OC [Compound 133], the inhibition at 330 ppm is reported as no less than 80%. COc1ccc(C2=C(C(=O)N3CCOCC3)C(OC(C)=O)c3ccccc32)cc1OC (stereo not shown) [Compound 148] was tested, and the inhibition at 330 ppm was no less than 80%. COc1ccc(-c2nc(Oc3ccc(C(F)(F)F)cc3)ncc2C(=O)N2CCOCC2)cc1OC [Compound 442] gave an inhibition at 330 ppm of no less than 80%. COc1ccc(-c2nc(Sc3ccc(Cl)c(Cl)c3)ncc2C(=O)N2CCOCC2)cc1OC [Compound 450] gave an inhibition at 330 ppm of no less than 80%. CCN(CC)C(=O)c1cnn(-c2ccc(Cl)cc2)c1-c1ccc(OC)c(OC)c1 [Compound 612, 4-(N,N-diethylaminocarbonyl)-2-(4-chlorophenyl)-3-(3,4-dimethoxyphenyl)pyrazole] was tested, and the inhibition at 330 ppm was no less than 80%. Compound COc1ccc(-c2nn(Cc3ccccc3)cc2C(=O)N2CCOCC2)cc1OC [Compound 613, 1-Benzyl-3-(3,4-dimethoxyphenyl)-4-(morpholinocarbonyl)pyrazole] has an inhibition at 330 ppm of no less than 80%. COc1ccc(-c2oc(-c3ccc(Cl)cc3)cc2C(=O)N2CCOCC2)cc1OC [Compound 616] gave an inhibition at 330 ppm of no less than 80%. COc1ccc(-c2c(C(=O)N3CCOCC3)cnn2-c2ccccc2)cc1OC [Compound 623] gave an inhibition at 330 ppm of no less than 80%. In the case of COc1ccc(-c2c(C(=O)N3CCOCC3)cnn2Cc2ccccc2)cc1OC [Compound 626], the inhibition at 330 ppm is reported as no less than 80%. COCCN(C)C(=O)c1ccc(-c2ccc(C#N)cc2)nc1-c1ccc(OC)c(OC)c1 [Compound 3100] gave an inhibition at 330 ppm of no less than 80%. For COc1ccc(-c2nc(-c3ccsc3)ccc2C(=O)N2CCOCC2)cc1OC [Compound 3112], the inhibition at 330 ppm was no less than 80%. Compound COc1ccc(-c2nc(-c3cccc4ccccc34)ccc2C(=O)N2CCOCC2)cc1OC [Compound 3114] has an inhibition at 330 ppm of no less than 80%. Work on COc1ccc(-c2nc(-c3ccc4ccccc4c3)ccc2C(=O)N2CCOCC2)cc1OC [Compound 3115] yielded an inhibition at 330 ppm of no less than 80%. COc1ccc(-c2nc(-c3ccco3)ccc2C(=O)N2CCOCC2)cc1OC [Compound 3116] was tested, and the inhibition at 330 ppm was no less than 80%. In the case of COCCN(C)C(=O)c1ccc(-c2ccsc2)nc1-c1ccc(OC)c(OC)c1 [Compound 3117], the inhibition at 330 ppm is reported as no less than 80%.
